{
  "source": "PubChem BioAssay (NCATS)",
  "key": {"[1]": {"experiment": "qHTS for Inhibitors of Plasmodium falciparum (7G8) proliferation (AID 504316); note: potency is the fitted concentration of half-maximal effect; nearly all actives have a fitted effect of over 65% in size", "details": "P. falciparum 7G8 in erythrocytes, SYBR Green DNA, 72 h; activity change, negative = inhibition: at 6.7 µM (top of the series)", "method_in_brief": "(§1)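 Erythrocytes infected with P. falciparum line (0.3% parasitemia, 2.5% hematocrit final) incubated with compounds 72 h at 37 °C, 5% CO2; SYBR Green lysis buffer added, fluorescence read next day. Normalized to 0.29 uM artemisinin and DMSO.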"}, "[2]": {"experiment": "qHTS for Inhibitors of Plasmodium falciparum (HB3) proliferation (AID 504318)", "details": "P. falciparum HB3 in erythrocytes, SYBR Green DNA, 72 h; activity change, negative = inhibition: at 7.21 µM (top of the series)", "method_in_brief": "as §1"}, "[3]": {"experiment": "qHTS for Inhibitors of Plasmodium falciparum (GB4) proliferation (AID 504315)", "details": "P. falciparum GB4 in erythrocytes, SYBR Green DNA, 72 h; activity change, negative = inhibition: at 6.7 µM (top of the series)", "method_in_brief": "as §1"}, "[4]": {"target": "Luciferin 4-monooxygenase (Photinus pyralis) (UniProt P08659)", "sequence (P08659 whole entry, looked up)": "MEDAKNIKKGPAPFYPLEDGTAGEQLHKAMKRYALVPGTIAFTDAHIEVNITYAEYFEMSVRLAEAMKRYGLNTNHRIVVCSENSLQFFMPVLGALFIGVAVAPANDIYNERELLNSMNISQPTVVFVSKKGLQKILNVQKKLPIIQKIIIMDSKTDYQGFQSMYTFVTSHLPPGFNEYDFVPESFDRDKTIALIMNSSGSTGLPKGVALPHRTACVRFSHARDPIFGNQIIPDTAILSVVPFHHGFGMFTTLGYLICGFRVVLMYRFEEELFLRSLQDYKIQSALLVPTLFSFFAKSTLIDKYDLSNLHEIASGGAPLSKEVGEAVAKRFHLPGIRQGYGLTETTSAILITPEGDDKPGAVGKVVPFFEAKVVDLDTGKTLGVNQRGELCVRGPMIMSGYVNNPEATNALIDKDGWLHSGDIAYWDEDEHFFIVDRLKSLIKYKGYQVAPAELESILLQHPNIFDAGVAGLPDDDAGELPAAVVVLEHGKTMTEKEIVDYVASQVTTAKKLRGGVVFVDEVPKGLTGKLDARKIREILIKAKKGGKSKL", "experiment": "Biochemical firefly luciferase enzyme assay for NPC (AID 624030)", "method_in_brief": "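Counter-screen for direct inhibition of the luciferase enzyme by approved-drug library compounds, run at 10 nM enzyme in 50 mM Tris acetate (final). Luminescence was read within 5 min of enzyme-buffer addition and normalized to PTC124 versus DMSO (0%).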"}, "CP211": {"test_system": "CP211", "experiment": "qHTS profiling for inhibitors of Plasmodium falciparum proliferation (AID 504749)", "details": "P. falciparum in erythrocytes, SYBR Green DNA, 72 h; series mostly up to 28.7 µM", "method_in_brief": "(§2)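 Parasite proliferation within erythrocytes, 72 h exposure. Endpoint: SYBR Green I fluorescence after overnight lysis at room temperature. Controls: 0.29 uM artemisinin, DMSO.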"}, "CP260": {"test_system": "CP260", "experiment": "qHTS profiling for inhibitors of Plasmodium falciparum proliferation (AID 504749)", "details": "P. falciparum in erythrocytes, SYBR Green DNA, 72 h; series mostly up to 28.7 µM", "method_in_brief": "as §2"}, "CP297": {"test_system": "CP297", "experiment": "qHTS profiling for inhibitors of Plasmodium falciparum proliferation (AID 504749)", "details": "P. falciparum in erythrocytes, SYBR Green DNA, 72 h", "method_in_brief": "as §2"}, "DIV30": {"test_system": "DIV30", "experiment": "qHTS profiling for inhibitors of Plasmodium falciparum proliferation (AID 504749)", "details": "P. falciparum in erythrocytes, SYBR Green DNA, 72 h; series mostly up to 28.7 µM", "method_in_brief": "as §2"}, "FAB9": {"test_system": "FAB9", "experiment": "qHTS profiling for inhibitors of Plasmodium falciparum proliferation (AID 504749)", "details": "P. falciparum in erythrocytes, SYBR Green DNA, 72 h; series mostly up to 28.7 µM", "method_in_brief": "as §2"}, "[5]": {"experiment": "qHTS for Inhibitors of Plasmodium falciparum (DD2) proliferation (AID 504314)", "method_in_brief": "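Quantitative HTS growth inhibition: SYBR Green I binding to parasite DNA after 72 h drug exposure of infected erythrocytes (0.3% parasitemia, 2.5% hematocrit). Signals normalized per plate to inhibitor and vehicle wells.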"}},
  "note": "This list was built around the results that the source calls inconclusive (neither active nor inactive); the mix of calls is not that of the screen. For some assays here: Potencies of inconclusive entries are left out as doubtful fits. The source made the active and inactive calls. Calls come from the whole dose curve; as a rule, active = well fitted curve in the direction sought with a large enough effect; inconclusive = small, poorly fitted or top-dose-only effect, or another doubt; inactive = no such curve, though single readings can be large; an effect the other way counts as inactive or inconclusive. Tags give direction and shape of the fitted curve. Throughout, for activity change, negative = inhibition: nearly all actives have a fitted effect of over 60% in size.",
  "data": [
    {"smiles": "C[C@@H]1CC[C@H]2C(=O)N(Cc3ccccc3)C[C@H](O)CN2[C@H]1c1ccc(Br)cc1", "values": [
      {"measurement": "Potency", "setting": "[1]", "value": "inconclusive [inhibitor, partial curve]"},
      {"measurement": "Potency", "setting": "[2]", "value": "inconclusive [inhibitor, partial curve]"}
    ]},
    {"smiles": "CC(C)Nc1oc(-c2ccccc2)nc1C=Cc1ccccc1", "values": [
      {"measurement": "Potency", "setting": "[3]", "value": "inconclusive [inhibitor, partial curve]"},
      {"measurement": "Potency", "setting": "[1]", "value": "inconclusive [inhibitor, partial curve]"},
      {"measurement": "Potency", "setting": "[2]", "value": "active: 1900 nM"}
    ]},
    {"smiles": "Cc1c(Cl)cccc1Nc1ncccc1C(=O)O", "values": [
      {"measurement": "Potency", "setting": "[4]", "value": "inconclusive [inhibitor, partial curve]"},
      {"measurement": "Potency", "setting": "CP211", "value": "inactive"},
      {"measurement": "Potency", "setting": "CP260", "value": "inactive"},
      {"measurement": "Potency", "setting": "CP297", "value": "inactive"},
      {"measurement": "Potency", "setting": "DIV30", "value": "inactive"},
      {"measurement": "Potency", "setting": "FAB9", "value": "inactive"}
    ]},
    {"smiles": "COc1ccc2c(c1)C(=O)[C@H](OC(=O)N[C@H]1CCCc3ccccc31)[C@@H](c1ccc(OC)c(Br)c1)O2", "values": [
      {"measurement": "Potency", "setting": "[1]", "value": "inconclusive [inhibitor, single point]"},
      {"measurement": "Potency", "setting": "[2]", "value": "inconclusive [inhibitor, single point]"}
    ]},
    {"smiles": "O=C1C=C(c2ccccc2)CCC1", "values": [
      {"measurement": "Potency", "setting": "[5]", "value": "inactive"},
      {"measurement": "Potency", "setting": "[2]", "value": "inactive"}
    ]},
    {"smiles": "CCOC(=O)NN=C1C[C@@H](O)[C@@H](O)[C@@H]2[C@H]3C(=O)N(C4CCCCC4)C(=O)[C@@H]3CC[C@H]12", "values": [
      {"measurement": "Potency", "setting": "[5]", "value": "inactive"},
      {"measurement": "Potency", "setting": "[1]", "value": "inconclusive [inhibitor, single point]"}
    ]}
  ]
}
